Experimental data: the supplement of paper PMC7125110
Variants at the background level are over-represented here.

B1: glmS ribozyme (parent)
chain: AUAAAAGCGCCAGAACUACAGAAAUGUAGUUGACGAGGAGGAGGUUUAUCGAAUUUUCGGCGGAUGCCUCCAAA

What was measured:
Conditions in all cases: with glucosamine-6-phosphate
[1] = variants of: B1; assay: self-cleavage kobs at 40 uM GlcN6P; higher = faster cleavage; RNA array
Method in brief: (§1)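 On sequenced MiSeq chips, barcoded ribozyme variants were made in situ by E. coli RNA polymerase and followed at 37 °C through a hybridised Cy3 probe. Glucosamine-6-phosphate was flowed in at 40 μM to 10 mM in HEPES/KCl/Mg(OAc)2 buffer. Exponential fits to normalised per-tile medians gave kobs, and weighted Michaelis–Menten fits gave kcat and KM.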

[2] = variants of: B1; assay: self-cleavage kobs at 2500 uM GlcN6P; higher = faster cleavage; RNA array
Method in brief: as §1

[3] = variants of: B1; assay: self-cleavage kobs at 10000 uM GlcN6P; higher = faster cleavage; RNA array
Method in brief: as §1

[4] = variants of: B1; assay: self-cleavage kobs at 640 uM GlcN6P; higher = faster cleavage; RNA array
Method in brief: as §1

[5] = variants of: B1; assay: self-cleavage kobs at 160 uM GlcN6P; higher = faster cleavage; RNA array
Method in brief: as §1

AUAAAAGGGCCAGAACUACAGAAAUGUAGUUGACGAGGAGGAGGUUUGUCGAAAUUUCGGCGGAUGCCUCCAAA [C8G A48G U54A]
< 1e-05 s⁻¹: self-cleavage kobs at 40 uM GlcN6P [1] | self-cleavage kobs at 2500 uM GlcN6P [2] | self-cleavage kobs at 10000 uM GlcN6P [3]

AUAAAAGGGCCAGAACUACAGAAAUGUAGUUGACGAGGAGGAGGUUUUUCGAAUUUUCGGCGGAUGCCUCCAAA [C8G A48U]
< 1e-05 s⁻¹: self-cleavage kobs at 40 uM GlcN6P [1] | self-cleavage kobs at 640 uM GlcN6P [4] | self-cleavage kobs at 160 uM GlcN6P [5] | self-cleavage kobs at 2500 uM GlcN6P [2] | self-cleavage kobs at 10000 uM GlcN6P [3]

AUAAAAGGGCCCGAGCUACAGAAAUGUAGGUGACGAGAAGGAGGUCUAUCGAAUUUUCGGCGGAUGCCUCCAAA [C8G A12C A15G U30G G38A U46C]
< 1e-05 s⁻¹: self-cleavage kobs at 40 uM GlcN6P [1]

AUAAAAGGGCCAGAACUACAGAAAUGUAGUUGACGAGGAGGAGGUUUAUCGCAUUUUCGGCGGAUGCCUCCAAA [C8G A52C]
< 1e-05 s⁻¹: self-cleavage kobs at 40 uM GlcN6P [1] | self-cleavage kobs at 10000 uM GlcN6P [3]

AUAAAAGGGCCAGAACUACAGAAAUGUAGUUGACGAGGAGGAGGUUUAUCGUAUUUUCGGCGGAUGCCUCCAAA [C8G A52U]
< 1e-05 s⁻¹: self-cleavage kobs at 40 uM GlcN6P [1] | self-cleavage kobs at 640 uM GlcN6P [4] | self-cleavage kobs at 160 uM GlcN6P [5] | self-cleavage kobs at 2500 uM GlcN6P [2] | self-cleavage kobs at 10000 uM GlcN6P [3]

AUAAAAGGGCCAGAACUACAGAAAUGUAGUUGACGUGCAGGAGGUUUAUCGAAUUUUAGGCGGAUGCCUCCAAA [C8G A36U G38C C58A]
< 1e-05 s⁻¹: self-cleavage kobs at 40 uM GlcN6P [1] | self-cleavage kobs at 640 uM GlcN6P [4]

AUAAAAGAGCCAGAACUACAGAAAUGUAGUCGAUGAGGCGGAGGUUUAUCGAAUUUACGGCGGAUGCCUCCAAA [C8A U31C C34U A39C U57A]
< 1e-05 s⁻¹: self-cleavage kobs at 40 uM GlcN6P [1] | self-cleavage kobs at 10000 uM GlcN6P [3]

AUAAAAGGGCCAGUACUACAGAAAUGUAGUUGACGAGGAGGGGGUUUAUCGAAUUUUCGGCGGAUGCCUGCAAA [C8G A14U A42G C70G]
< 1e-05 s⁻¹: self-cleavage kobs at 40 uM GlcN6P [1] | self-cleavage kobs at 10000 uM GlcN6P [3]

AUAAAAGGGCCAGAUCUACAGAAAUGUAGAUGACGAGGAGGAGGUUGAUCGAAUUUUCGGCGGAUGCCUCCAAA [C8G A15U U30A U47G]
< 1e-05 s⁻¹: self-cleavage kobs at 40 uM GlcN6P [1] | self-cleavage kobs at 640 uM GlcN6P [4] | self-cleavage kobs at 2500 uM GlcN6P [2]

AUAAAAGAGCCAGAACUACAGAAAUGUAGUUGACGAGGAGCUGGUUUAUCGAAUUUUCGGCGGAUGCCUCCAAA [C8A G41C A42U]
< 1e-05 s⁻¹: self-cleavage kobs at 40 uM GlcN6P [1] | self-cleavage kobs at 640 uM GlcN6P [4] | self-cleavage kobs at 10000 uM GlcN6P [3]

AUAAAAGAGCCAGAACUACAGAAAUGUAGUUGACGAGGAGGAGGUUUAUCGAAUUUUCGGCGUAUGCCUCCAAA [C8A G63U]
< 1e-05 s⁻¹: self-cleavage kobs at 40 uM GlcN6P [1] | self-cleavage kobs at 640 uM GlcN6P [4] | self-cleavage kobs at 160 uM GlcN6P [5] | self-cleavage kobs at 2500 uM GlcN6P [2]

AUAAAAGGGCCAGAACUACAGAAAUGUAGUUGGCGAGGAGGAGGUUUAUCGAAUUUUCGGCGGAUGCCUCCAAA [C8G A33G]
< 1e-05 s⁻¹: self-cleavage kobs at 40 uM GlcN6P [1] | self-cleavage kobs at 640 uM GlcN6P [4] | self-cleavage kobs at 160 uM GlcN6P [5] | self-cleavage kobs at 2500 uM GlcN6P [2] | self-cleavage kobs at 10000 uM GlcN6P [3]

AUAAAAGAGCCAGAACUACAGAAAUGUAGUUGACGAGGAGGAGGUUUAUCGAAUUUUCUGCGGAUGCCUCCAAA [C8A G59U]
< 1e-05 s⁻¹: self-cleavage kobs at 40 uM GlcN6P [1] | self-cleavage kobs at 640 uM GlcN6P [4] | self-cleavage kobs at 160 uM GlcN6P [5] | self-cleavage kobs at 10000 uM GlcN6P [3]

AUAAAAGAGCCAGAACUACAGAAAUGUAGUUGACGAGGAGGAGGUGUAUCGAAUUUUCGACGGAUGGCUCCAAA [C8A U46G G60A C67G]
< 1e-05 s⁻¹: self-cleavage kobs at 40 uM GlcN6P [1] | self-cleavage kobs at 640 uM GlcN6P [4] | self-cleavage kobs at 160 uM GlcN6P [5]

AUAAAAGGGCCAGUACUACAGAAAUGUAGUUGACGAGGAGGAGGUUUAUCGAAUUUUCGGCGGAUGCCUCCAAA [C8G A14U]
< 1e-05 s⁻¹: self-cleavage kobs at 40 uM GlcN6P [1] | self-cleavage kobs at 640 uM GlcN6P [4] | self-cleavage kobs at 160 uM GlcN6P [5] | self-cleavage kobs at 10000 uM GlcN6P [3]

AUAAAAGGGCCAGGACUACAGAAAUGUAGUUGACGAGGAGGAGGUUUAUCGAAUUUUCGGCGGAUGCCUCCAAA [C8G A14G]
< 1e-05 s⁻¹: self-cleavage kobs at 40 uM GlcN6P [1] | self-cleavage kobs at 640 uM GlcN6P [4] | self-cleavage kobs at 160 uM GlcN6P [5] | self-cleavage kobs at 2500 uM GlcN6P [2] | self-cleavage kobs at 10000 uM GlcN6P [3]

AUAAAAGAGCCAGAACUACAGAAAUGUAGUUGACGAGGAGGAGGUUUAUCAAAUUUUCGGCGGAUGCCUCCAAA [C8A G51A]
< 1e-05 s⁻¹: self-cleavage kobs at 40 uM GlcN6P [1] | self-cleavage kobs at 2500 uM GlcN6P [2]

AUAAAAGGGCCUGAACUACAGAAAUGUAGUUGACGAAGAGGAGUUUUAUCGAAUUUUCGGCGGAUGCCUCCAAA [C8G A12U G37A G44U]
< 1e-05 s⁻¹: self-cleavage kobs at 40 uM GlcN6P [1] | self-cleavage kobs at 10000 uM GlcN6P [3]

AUAAAAGAGCCAGAACUACAGAAAUGUAGUUGACGAGGAGGAGGGUUAUCGAAUUUUCGGCGGAUGCCUCCAAA [C8A U45G]
< 1e-05 s⁻¹: self-cleavage kobs at 40 uM GlcN6P [1] | self-cleavage kobs at 640 uM GlcN6P [4] | self-cleavage kobs at 160 uM GlcN6P [5] | self-cleavage kobs at 2500 uM GlcN6P [2] | self-cleavage kobs at 10000 uM GlcN6P [3]

AUAAAAGAGCCAGAACUACAGAAAUGUAGUUGACGACGAGGAGGUUUAUCGAAUUUUCGGCUGAUGCCUCCAAA [C8A G37C G62U]
< 1e-05 s⁻¹: self-cleavage kobs at 40 uM GlcN6P [1] | self-cleavage kobs at 640 uM GlcN6P [4] | self-cleavage kobs at 10000 uM GlcN6P [3]

AUAAAAGAGCCAGAACUACAGAAAUGUAGUUGACGAGGAGGAGAUUUAUCGAAUUUUCGGCGGAUGCCGCCAAA [C8A G44A U69G]
< 1e-05 s⁻¹: self-cleavage kobs at 40 uM GlcN6P [1] | self-cleavage kobs at 10000 uM GlcN6P [3]

AUAAAAGAGCCAGAACUACAGAAAUGUAGUUGACGAGGAGGAGGUUUAUCGAAUCUUCGGCGGAUGCCUCCAAA [C8A U55C]
< 1e-05 s⁻¹: self-cleavage kobs at 40 uM GlcN6P [1] | self-cleavage kobs at 10000 uM GlcN6P [3]

AUAAAAGAGCCAGAACUACAGAAAUGUAGUUGACGAGGAGUAGGUUUAUGGAAUUUUCGGCGGAUGCCUCCAAA [C8A G41U C50G]
< 1e-05 s⁻¹: self-cleavage kobs at 40 uM GlcN6P [1]

AUAAAAGAGCCAGAACUACAGAAAUGUAGUUGACGAGGAGGAGGUUCAUCGAAUUUUCGGCGGAAGCCUCCAAA [C8A U47C U65A]
< 1e-05 s⁻¹: self-cleavage kobs at 40 uM GlcN6P [1]

AUAAAAGAGCCAGAACUACAGAAAUGUAGUUGACGAGGAGGAGGUUUAUCGAAUUCUCGGCGGAUGCCUCCAAA [C8A U56C]
< 1e-05 s⁻¹: self-cleavage kobs at 40 uM GlcN6P [1] | self-cleavage kobs at 640 uM GlcN6P [4] | self-cleavage kobs at 160 uM GlcN6P [5] | self-cleavage kobs at 2500 uM GlcN6P [2] | self-cleavage kobs at 10000 uM GlcN6P [3]
